According to the supplement of paper PMC3334620:
Whole data set: some 33,000 sequences, median “E-score (-0.5 to 0.5)” near -0.017, cut for the highest 2% near 0.3. The list shows a part of the results.

These sequences were tested against T1, Sut1 (UniProt P53032) (assay: PBM E-score (8-mer binding enrichment) (E-score (-0.5 to 0.5)); higher = stronger / more preferred TF binding; most listed sequences are background and not binding sites). Conditions: protein concentration: 200 nM; construct: GST-full length.
T1 sequence: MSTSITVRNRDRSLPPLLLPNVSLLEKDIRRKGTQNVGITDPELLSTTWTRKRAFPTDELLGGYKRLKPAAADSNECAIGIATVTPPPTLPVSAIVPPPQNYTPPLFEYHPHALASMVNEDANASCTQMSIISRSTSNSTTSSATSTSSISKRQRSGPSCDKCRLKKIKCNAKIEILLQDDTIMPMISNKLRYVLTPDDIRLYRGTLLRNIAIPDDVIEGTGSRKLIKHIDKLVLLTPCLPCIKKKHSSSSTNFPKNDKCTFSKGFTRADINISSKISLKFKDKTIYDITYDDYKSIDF
Protocol: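 Universal 'all 10-mer' protein binding microarrays (Agilent AMADID 015681) probed with GST-tagged S. cerevisiae TFs (full-length or DBD) made by in vitro transcription/translation (PURExpress), about 100-200 nM. Bound TF was detected with fluorescent anti-GST. Each ungapped 8-mer (which stands for itself and its reverse complement) is scored by the PBM enrichment score (E-score), a modified Wilcoxon-Mann-Whitney statistic from -0.5 to +0.5, computed with the Universal PBM Analysis Suite. Scale: above 0.35 generally sequence-specific binding.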

Sequence	PBM E-score
AAAGGCCA	-0.0689
ACCAGTAA	0.0966
ACATTACA	0.186
AAAGCTAT	0.0634
CTGGAAGC	-0.319
AATGCACC	0.02
CATAGAGC	-0.253
AATTAACC	0.219
GAACGCCA	-0.0274
TGCTTGAA	0.102
ACCCGGTA	-0.00409
CTGGGTTA	0.0488
CAAGTGAC	-0.0165
CTGAGGTC	-0.347
CCTCTTGC	-0.257
GAGGTTCC	-0.199
GATCCATA	0.0449
ACTGACTC	-0.00408
ACAGCAGC	0.0163
CACTCCAG	-0.176
CAGCTGAG	-0.136
CGAGTCAG	-0.00182
CTATACCA	-0.0418
AACTTGAT	0.27
GGACGTAC	-0.142

Sequence	PBM E-score
AGTAGTAT	0.0418
GAAGTAAA	0.223
TCATGGGA	-0.0888
AGTGAGAC	-0.0785
CTAGGCGC	-0.12
CGACGGCG	-0.269
CGCCAATA	-0.102
ACTTACCT	-0.113
AATGCCTA	0.0556
GTCCAAAA	0.189
AATCGTGC	0.161
CAACGAGC	-0.303
AAAAAGTC	0.242
AACGACAT	0.0198
TGCAGACA	-0.113
AAGGCTGC	-0.11
CTTTCAGA	0.0565
CTGAACCA	-0.151
TGAATCCA	0.103
ACCAGACA	-0.0664
CTAGTCGA	0.103
GACCATGA	-0.257
GCGCTTCA	0.0784
AAGACCAA	0.0228
AAGGGGCG	-0.252

Sequence	PBM E-score
GAGACTGC	-0.128
ACTGATTA	0.111
TCGTGTCA	-0.0574
CCCTGCGC	-0.226
AAACTATG	0.0992
ACGTTAAA	0.206
CCACGTAG	-0.385
CGTGCTTC	-0.0573
CGTTAAAG	0.0442
AACTTATC	0.164
ATCACCCC	-0.0853
CTAAAAAC	0.112
CCTAGCCG	-0.0997
AGCCCAGA	-0.172
GCGCGTCC	-0.172
GAGGTTCA	-0.0647
ACAACAGA	0.00764
TACCCGAA	0.0219
CGCACCTA	-0.26
ACATATCG	0.052
ATAGGCAG	0.0777
CGTACTTC	0.115
AAACCGAT	0.0387
CAGCGGCC	-0.151
GCGGCTCA	-0.112

Sequence	PBM E-score
CGTTATAG	0.0722
ATGTGGTG	-0.0634
TGAGAAAA	0.131
GCACTGCC	-0.0548
CATTTCTC	0.198
AACCCCCA	-0.38
AGAGTGAA	0.0327
AGAGGCGC	-0.201
ACGACCAC	0.0155
ACGCCCCT	-0.31
GGCTAGAA	-0.0641
ACGTTCCT	-0.122
CTAACAAG	-0.0947
GGAATACA	0.157
ACCAAGAG	-0.181
CGGCGCCC	-0.146
CGGCTCTC	-0.0619
ATCGGGGA	-0.00797
AGCGGATA	0.033
GAGCTCAA	0.118
CTTTGGGA	0.0861
AGGATCCT	-0.0676
CTGTACAG	-0.0613
CCCCACAA	-0.154
ATGCTTGC	-0.0788

Sequence	PBM E-score
ACATTACG	0.113
CGAAGCTA	-0.0647
GCAACAAA	0.152
CGCCTCTA	-0.128
CCGACAGA	0.172
GAACGCCC	-0.0493
ACTGGAAG	-0.00568
GCCTAAGC	-0.168
ATGTGATA	0.0582
AATTACGT	0.118
AATTTGGC	0.0804
ACGAGCGC	-0.105
ATCCCCCA	-0.366
CAGCAGTA	-0.127
GCATTACC	-0.0192
CAGCTCTC	-0.108
AAATCTTG	0.0105
TAGGACTA	0.0501
AAGACGGG	-0.0207
AGACGGAC	0.129
GACCGTAA	-0.0628
TAGCATAA	0.0326
CACAATAG	-0.024
GGCCGGAA	0.0761
AACGTCGA	0.0935

Sequence	PBM E-score
CAAACGTG	-0.0235
ACATATGG	0.0306
CTACAACC	-0.0138
GGCGCAGA	-0.282
CTCGCTTC	0.0401
ACGGTAGC	-0.0845
AAGTGCGG	0.0614
CCATTGTC	0.154
ACATGTTC	-0.0202
GCCAGTAA	-0.0168
ACAATAGA	0.0251
AGCCGTAG	0.0346
ATTGGGGG	-0.229
GGCCGGCA	0.00533
TGACCACA	-0.0296
ATTCCAAA	0.0401
CGATAGAG	-0.145
CGCACTCA	-0.0581
ACTTCTAG	-0.208
AAACATAG	-0.136
GAGGCCGA	-0.179
CGTCAGGC	-0.212
CTCCCACC	-0.34
CGTGCTCA	-0.0244
CCACGACG	-0.146

Sequence	PBM E-score
GATGCCAA	-0.177
CGTCTAGA	-0.0457
ACTTTATG	0.175
GCGTACGA	0.0735
TAATAGGA	0.144
AATTGTGC	0.113
CGGCCGCC	-0.05
CCTATCGA	-0.0541
ATAAGTAT	0.19
CCGCTCCC	-0.299
AGACTCAC	-0.09
ATATCTAG	0.0278
CAGGTTAG	-0.082
CTTCGTTA	0.0191
TCTTTAAA	0.209
AGGGTTTA	-0.101
ATTGAGGG	-0.188
GTAGCGAA	0.0328
CAATTATC	0.197
CAGCGCCA	-0.239
ATTCGCCG	0.231
CGACACCA	-0.0673
